{"sequences": {"note": "The chains behind the UniProt entries cited, without tags or fusion partners. Where a name states a change or a piece, a line headed by the entry shows the natural chain unless it says otherwise. Residues count along the entry.", "UniProt P78536, residues 694-824": "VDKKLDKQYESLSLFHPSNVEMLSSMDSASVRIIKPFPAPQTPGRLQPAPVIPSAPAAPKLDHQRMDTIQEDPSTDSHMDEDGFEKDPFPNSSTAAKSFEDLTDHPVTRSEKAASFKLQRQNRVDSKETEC", "UniProt P06239": "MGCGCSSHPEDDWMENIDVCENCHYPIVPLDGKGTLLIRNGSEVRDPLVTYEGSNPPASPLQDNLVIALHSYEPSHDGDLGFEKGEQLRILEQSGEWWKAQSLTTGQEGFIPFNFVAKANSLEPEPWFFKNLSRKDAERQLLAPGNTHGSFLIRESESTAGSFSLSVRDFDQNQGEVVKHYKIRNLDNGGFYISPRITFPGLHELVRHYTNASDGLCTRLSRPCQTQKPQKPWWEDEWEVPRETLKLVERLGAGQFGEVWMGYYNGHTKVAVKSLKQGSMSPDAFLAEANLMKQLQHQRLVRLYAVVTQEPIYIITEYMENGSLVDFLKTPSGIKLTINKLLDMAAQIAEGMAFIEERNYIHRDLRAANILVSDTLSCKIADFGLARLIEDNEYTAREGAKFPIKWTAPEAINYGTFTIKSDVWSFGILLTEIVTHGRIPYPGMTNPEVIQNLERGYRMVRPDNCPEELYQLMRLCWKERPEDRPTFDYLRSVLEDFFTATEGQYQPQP", "GST-coupled SH3 domain of Lck": "residues 61-121 of P06239", "UniProt Q9BY11": "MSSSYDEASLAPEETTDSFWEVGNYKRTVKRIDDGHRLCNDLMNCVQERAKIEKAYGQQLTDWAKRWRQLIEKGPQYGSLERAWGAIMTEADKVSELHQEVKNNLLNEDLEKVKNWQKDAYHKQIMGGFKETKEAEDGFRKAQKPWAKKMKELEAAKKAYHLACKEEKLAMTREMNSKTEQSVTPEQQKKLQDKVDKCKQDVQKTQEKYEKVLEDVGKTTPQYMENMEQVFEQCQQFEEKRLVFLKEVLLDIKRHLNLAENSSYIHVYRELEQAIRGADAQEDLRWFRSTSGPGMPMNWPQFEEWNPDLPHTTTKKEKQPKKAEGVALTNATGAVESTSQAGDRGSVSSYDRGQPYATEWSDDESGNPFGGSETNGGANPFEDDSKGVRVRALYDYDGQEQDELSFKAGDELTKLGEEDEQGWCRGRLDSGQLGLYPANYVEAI", "GST fusion protein with the SH3 domain of PACSIN1": "residues 385-444 of Q9BY11", "UniProt Q9UNF0": "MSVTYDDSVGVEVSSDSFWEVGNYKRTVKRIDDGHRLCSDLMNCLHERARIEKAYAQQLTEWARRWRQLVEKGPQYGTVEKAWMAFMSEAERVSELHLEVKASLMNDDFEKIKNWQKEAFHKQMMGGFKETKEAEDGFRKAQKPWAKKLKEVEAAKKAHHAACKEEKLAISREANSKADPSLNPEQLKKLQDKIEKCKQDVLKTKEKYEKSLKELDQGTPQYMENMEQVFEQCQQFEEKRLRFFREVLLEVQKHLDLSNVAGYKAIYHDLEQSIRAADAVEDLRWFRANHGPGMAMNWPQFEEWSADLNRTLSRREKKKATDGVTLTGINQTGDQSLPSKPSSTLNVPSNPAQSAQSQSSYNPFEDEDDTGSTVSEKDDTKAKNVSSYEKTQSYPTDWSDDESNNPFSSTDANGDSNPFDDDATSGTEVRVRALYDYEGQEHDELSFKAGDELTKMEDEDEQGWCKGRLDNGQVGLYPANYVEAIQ", "GST fusion protein with the SH3 domain of PACSIN2": "residues 426-486 of Q9UNF0", "GST-coupled SH3 domain of Hck (P08631, residues 78-138)": "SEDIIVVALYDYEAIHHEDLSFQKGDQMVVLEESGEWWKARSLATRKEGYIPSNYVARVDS", "GST fusion protein with the SH2 domain of Hck (P08631, residues 144-241)": "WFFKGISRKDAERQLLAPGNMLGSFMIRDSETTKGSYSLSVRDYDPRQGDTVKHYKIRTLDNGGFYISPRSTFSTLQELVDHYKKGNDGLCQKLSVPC", "GST-coupled SH3 domain of Yes (P07947, residues 91-152)": "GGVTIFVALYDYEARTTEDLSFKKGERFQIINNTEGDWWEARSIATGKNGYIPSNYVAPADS", "GST fusion protein with the SH2 domain of Yes (P07947, residues 158-255)": "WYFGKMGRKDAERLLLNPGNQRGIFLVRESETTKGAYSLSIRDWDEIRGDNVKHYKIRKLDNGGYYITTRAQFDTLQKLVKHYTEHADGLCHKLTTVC", "GST-coupled SH3 domain of Abl (P00519, residues 61-121)": "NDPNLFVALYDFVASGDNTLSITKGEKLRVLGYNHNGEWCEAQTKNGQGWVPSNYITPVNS", "GST fusion protein with the SH2 domain of Abl (P00519, residues 127-217)": "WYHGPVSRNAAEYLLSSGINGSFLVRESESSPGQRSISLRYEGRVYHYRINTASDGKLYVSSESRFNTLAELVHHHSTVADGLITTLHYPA", "GST-coupled SH3 domain of Fyn (P06241, residues 82-143)": "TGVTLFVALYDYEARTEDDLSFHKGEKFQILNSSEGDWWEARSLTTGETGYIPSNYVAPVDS", "GST fusion protein with the SH2 domain of Fyn (P06241, residues 149-246)": "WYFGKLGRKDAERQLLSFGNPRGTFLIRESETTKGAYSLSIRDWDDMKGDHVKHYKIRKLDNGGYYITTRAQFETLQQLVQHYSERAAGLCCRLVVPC", "UniProt P62993": "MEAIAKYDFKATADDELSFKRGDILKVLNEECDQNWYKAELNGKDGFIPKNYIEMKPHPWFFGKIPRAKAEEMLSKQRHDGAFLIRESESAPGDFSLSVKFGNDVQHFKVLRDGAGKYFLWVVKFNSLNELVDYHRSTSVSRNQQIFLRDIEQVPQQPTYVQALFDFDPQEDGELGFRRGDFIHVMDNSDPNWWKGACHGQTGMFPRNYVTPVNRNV", "UniProt Q9Y5X1": "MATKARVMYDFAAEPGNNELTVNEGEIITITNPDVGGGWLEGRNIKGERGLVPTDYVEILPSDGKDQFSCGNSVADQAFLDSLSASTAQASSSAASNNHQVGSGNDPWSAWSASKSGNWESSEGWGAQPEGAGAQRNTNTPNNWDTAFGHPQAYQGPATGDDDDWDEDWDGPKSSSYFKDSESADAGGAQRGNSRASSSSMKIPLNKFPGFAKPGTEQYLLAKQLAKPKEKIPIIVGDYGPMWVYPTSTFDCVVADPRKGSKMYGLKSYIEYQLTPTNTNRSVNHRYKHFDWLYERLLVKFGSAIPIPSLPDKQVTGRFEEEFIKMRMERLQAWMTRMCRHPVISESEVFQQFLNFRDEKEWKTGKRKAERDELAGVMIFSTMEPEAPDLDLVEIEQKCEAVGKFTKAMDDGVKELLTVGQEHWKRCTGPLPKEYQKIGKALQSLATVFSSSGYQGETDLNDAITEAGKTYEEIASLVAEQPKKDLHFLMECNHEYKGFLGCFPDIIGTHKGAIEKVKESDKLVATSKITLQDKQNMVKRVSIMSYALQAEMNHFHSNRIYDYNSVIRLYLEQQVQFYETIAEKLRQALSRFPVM"}, "source": "paper PMC4103893", "key": {"[1]": {"biological_target": "T1, GST-hADAM10(697–748) (human) (UniProt O14672)", "T1 sequence": "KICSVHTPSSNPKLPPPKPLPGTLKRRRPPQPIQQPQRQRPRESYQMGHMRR", "assay": "pull-down; 10 µg GST or GST-hADAM10(697–748); lysate of Jurkat cells (JE6-1), 900 µg/ml protein; blot with polyclonal anti-Grb2; only the target purified"}, "[2]": {"biological_target": "T1, GST-hADAM10(697–748) (human)", "assay": "pull-down; 10 or 25 µg of GST, GST-hADAM10(697–748) or GST-hADAM17(694–824); lysates of HEK 293T cells transfected with HA-tagged sorting nexins or myc-tagged PACSINs; blots against the HA- or myc-tag; only the target purified"}, "[3]": {"biological_target": "GST-hADAM17(694–824) (human) (UniProt P78536)", "assay": "pull-down; 10 or 25 µg of GST, GST-hADAM10(697–748) or GST-hADAM17(694–824); lysates of HEK 293T cells transfected with HA-tagged sorting nexins or myc-tagged PACSINs; blots against the HA- or myc-tag; only the target purified"}, "[4]": {"biological_target": "GST-coupled SH3 domain of Lck (human) (UniProt P06239)", "assay": "pull-down; as Fig. 3A (GST-Lck SH3, JFL lysate, mAb 11G2), longer exposure times; data not shown; only the target purified"}, "[5]": {"biological_target": "Lck (endogenous) (human (endogenous in Jurkat)) (UniProt P06239)", "assay": "co-IP; endogenous proteins, Jurkat T cells (JE6-1); 2 µg of mAbs against Lck (4/129, 4/215) or ADAM10 (11G2) with Protein G beads; blots with mAb 11G2 or anti-Grb2 (C-23)"}, "[6]": {"biological_target": "GST fusion protein with the SH3 domain of PACSIN1 (UniProt Q9BY11)", "assay": "pull-down; 10-15 µg GST fusion proteins (SH3 or SH2 domains) or GST on glutathione sepharose; lysates of Jurkat T cells (JFL); blot with anti-ADAM10 mAb 11G2; only the target purified"}, "[7]": {"biological_target": "GST fusion protein with the SH3 domain of PACSIN2 (UniProt Q9UNF0)", "assay": "pull-down; 10-15 µg GST fusion proteins (SH3 or SH2 domains) or GST on glutathione sepharose; lysates of Jurkat T cells (JFL); blot with anti-ADAM10 mAb 11G2; only the target purified"}, "[8]": {"biological_target": "GST fusion protein with the SH2 domain of Hck (UniProt P08631)", "assay": "pull-down; 10-15 µg GST fusion proteins (SH3 or SH2 domains) or GST on glutathione sepharose; lysates of Jurkat T cells (JFL); blot with anti-ADAM10 mAb 11G2; only the target purified"}, "[9]": {"biological_target": "GST fusion protein with the SH2 domain of Yes (UniProt P07947)", "assay": "pull-down; 10-15 µg GST fusion proteins (SH3 or SH2 domains) or GST on glutathione sepharose; lysates of Jurkat T cells (JFL); blot with anti-ADAM10 mAb 11G2; only the target purified"}, "[10]": {"biological_target": "GST-coupled SH3 domain of Hck (UniProt P08631)", "assay": "pull-down; 10-15 µg GST fusion proteins (SH3 or SH2 domains) or GST on glutathione sepharose; lysates of Jurkat T cells (JFL); blot with anti-ADAM10 mAb 11G2; only the target purified"}, "[11]": {"biological_target": "GST-coupled SH3 domain of Lck (human) (UniProt P06239)", "assay": "pull-down; 10-15 µg GST fusion proteins (SH3 or SH2 domains) or GST on glutathione sepharose; lysates of Jurkat T cells (JFL); blot with anti-ADAM10 mAb 11G2; only the target purified"}, "[12]": {"biological_target": "GST fusion protein with the SH2 domain of Abl (human) (UniProt P00519)", "assay": "pull-down; 10-15 µg GST fusion proteins (SH3 or SH2 domains) or GST on glutathione sepharose; lysates of Jurkat T cells (JFL); blot with anti-ADAM10 mAb 11G2; only the target purified"}, "[13]": {"biological_target": "GST-coupled SH3 domain of Fyn (UniProt P06241)", "assay": "pull-down; 10-15 µg GST fusion proteins (SH3 or SH2 domains) or GST on glutathione sepharose; lysates of Jurkat T cells (JFL); blot with anti-ADAM10 mAb 11G2; only the target purified"}, "[14]": {"biological_target": "GST-coupled SH3 domain of Abl (human) (UniProt P00519)", "assay": "pull-down; 10-15 µg GST fusion proteins (SH3 or SH2 domains) or GST on glutathione sepharose; lysates of Jurkat T cells (JFL); blot with anti-ADAM10 mAb 11G2; only the target purified"}, "[15]": {"biological_target": "GST-coupled SH3 domain of Yes (UniProt P07947)", "assay": "pull-down; 10-15 µg GST fusion proteins (SH3 or SH2 domains) or GST on glutathione sepharose; lysates of Jurkat T cells (JFL); blot with anti-ADAM10 mAb 11G2; only the target purified"}, "[16]": {"biological_target": "GST fusion protein with the SH2 domain of Fyn (UniProt P06241)", "assay": "pull-down; 10-15 µg GST fusion proteins (SH3 or SH2 domains) or GST on glutathione sepharose; lysates of Jurkat T cells (JFL); blot with anti-ADAM10 mAb 11G2; only the target purified"}}, "note": "Results are given in words; binding and its absence hold for the method and conditions named. Binding seen in cells or lysates may run through a third protein. Some entries that bind do so weakly or less than the wild type. For some assays here: Sequences can lack the tags named with a protein."}
{"substance": "Grb2 (endogenous) (from UniProt P62993 1-217)", "values": [{"measurement": "binding", "setting": "[1]", "value": "binds"}]}
{"substance": "HA-tagged SNX9 (from UniProt Q9Y5X1 1-595)", "values": [{"measurement": "binding", "setting": "[2]", "value": "binds"}, {"measurement": "binding", "setting": "[3]", "value": "binds"}]}
{"substance": "mature ADAM10 (endogenous) (from UniProt O14672 214-748)", "values": [{"measurement": "binding", "setting": "[4]", "value": "binds"}, {"measurement": "binding", "setting": "[5]", "value": "binds"}, {"measurement": "binding", "setting": "[6]", "value": "binds"}, {"measurement": "binding", "setting": "[7]", "value": "binds"}, {"measurement": "binding", "setting": "[8]", "value": "no binding (tested: 10 µg)"}, {"measurement": "binding", "setting": "[9]", "value": "no binding (tested: 10 µg)"}, {"measurement": "binding", "setting": "[10]", "value": "binds"}, {"measurement": "binding", "setting": "[11]", "value": "binds weakly"}, {"measurement": "binding", "setting": "[12]", "value": "no binding (tested: 10 µg)"}, {"measurement": "binding", "setting": "[13]", "value": "binds"}, {"measurement": "binding", "setting": "[14]", "value": "binds"}, {"measurement": "binding", "setting": "[15]", "value": "binds"}, {"measurement": "binding", "setting": "[16]", "value": "no binding (tested: 10 µg)"}]}
{"substance": "myc-tagged PACSIN1 (from UniProt Q9BY11 1-444)", "values": [{"measurement": "binding", "setting": "[2]", "value": "binds"}, {"measurement": "binding", "setting": "[3]", "value": "binds"}]}
{"substance": "myc-tagged PACSIN2 (from UniProt Q9UNF0 1-486)", "values": [{"measurement": "binding", "setting": "[2]", "value": "binds"}, {"measurement": "binding", "setting": "[3]", "value": "binds"}]}
